Source: the supplement of paper PMC11417369
The other results are listed elsewhere or left out.

What follows are sequences tested on PfAP2-HC AP2 domain (GST-tagged) (assay: gcPBM binding intensity (ln(normalized median fluorescence intensity)); higher = stronger DNA binding).
Method in brief: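 GST-fused DNA-binding domains of P. falciparum, expressed in E. coli, were applied at about 25 μg on average for 1 h to an Agilent 4 × 180k array of primer-extended double-stranded 36-bp intergenic genomic probes and negative controls. Binding intensity is the highest Masliner-normalised natural-log median intensity across replicate spots of either probe orientation, measured with Alexa488 anti-GST antibody and a 488 nm scan.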

Sequence	gcPBM binding intensity (ln)
TTTGTCATAAGCAATGCATGTAAGTTTCTGACATTA [TGCATGCA_site1007]	9.29
TGGGATAGATCATTTACACACACAAAAAAAAAAAAA [CACACA_site2140]	9.89
ACATATAAAATATTCACACACAAGTTATAGTTCTCG [CACACA_site3626]	10
AATAAATTATATATCACACATATATATTTATATTTA [CACACA_site5964]	9.45
AAATTTATAAAGAACACACACATATATATATATATA [CACACA_site48]	10.7
CAAAACCTAATATGTACACACATATACATCACACTT [CACACA_site7480]	10
TTTCTTTCGAATGCTTCACACATTACTCTTAAATAG [CACACA_site5265]	9.62
AAATGTGAACTATAATAATTTCAACGTCTGATATAA [TGCATGCA_negctrl_site440]	9.61
ATATATATATATATAGTGCACATTTATATAATTATT	9.84
ATTTTGTTATTATATATATATATATATATATATATA [XGTACX_negctrl_site590]	9.69
ATTTTAAATTAAATTACACACTACGAATAATATATT [CACACA_site4016]	9.66
ATATTTCTGTCAAGCACACATAATATTAATATATGT [CACACA_site318]	9.89
ATTCATATGAAACACACACACACACCCATAAAAAAA [CACACA_site3246]	10.5
TCTTTTCAATTTTATATGATCTTAATATTTTATGAA [GTGCAC_negctrl_site294]	9.54
TTTTTTTTTTTTTACACACACAAAATATTATAGGTA [CACACA_site7209]	9.92
ATTTTTTACATACTCAAATGTTTTAATTTTTTATAT [CACACA_negctrl_site1213]	9.77
AATATAAGAAAAATAACACACACATAAACATATATA [CACACA_site8899]	10.4
ACATTAAAAAATTGTTTGCACTATATAAAATATTAA [GTGCAC_site9728]	9.51
TTTCTTTTCTTCTCTATTTTTTTTTCACGGCATTAT [TGCATGCA_negctrl_site484]	9.54
TATATATATATATATTGTACTTTATATGTTCTTATA [XGTACX_site7545]	10
AAATATTACATTTGTTAAATAATATGTTATACATAA [XGTACX_negctrl_site484]	9.27
TTTTATAAAGGAAAAGCATGCAGACTAAAAGATCAT [TGCATGCA_site150]	9.65

Sequence	gcPBM binding intensity (ln)
AAGGGAAAATAATAAAAGAAAAAGAAAAAAAAAAAA [CACACA_negctrl_site1518]	9.36
TAATGGAGAAAAAAAAAACACACGGTACATTCAAAG [CACACA_site3117]	9.97
TGTATAAAAATTTATACACACATTTTATATATTTCA [CACACA_site1015]	9.61
TATTAATTATTATGACATACATATCAGTTATTAAAA [CACACA_negctrl_site600]	9.35
TAATCCATAAGAAGCACACACATATATATATATTTT [CACACA_site1399]	9.99
GAGAGGAACATTATATGTACATATTAATTCTAAAAT [XGTACX_site5433]	9.59
ACAAATAAGTTTTATACACACATATAAGTAAATACA [CACACA_site4157]	9.98
TATAGTGATATATACACACACTTGTCTTGTAAAAAT [CACACA_site6594]	9.84
ACAATATTTTTTTATAAACACACATATATATAAATA [CACACA_site9175]	9.68
ATGAACAAGTGGCACACACACATTATAACTAATTTA [CACACA_site5731]	10.1
TTTATTTATTACTAAAGTACTAAATCATATTATTAT [XGTACX_site2574]	9.3
TTCTTTTTTTTTATCACACATATTACAATCTAGTGC [CACACA_site4697]	9.75
AAAATAATATTTCCTTGTACACATATGTATTTGTTC [XGTACX_site4430]	9.92
TTTTCATAATATACATGTACATATATAAATTATTAA [XGTACX_site5206]	9.33
GTATACATGCAAATTTTTATTTACAACCCCAAAAAG [XGTACX_negctrl_site255]	9.68
TTTTTTTCACAAAATACACACAATATATTTTATATC [CACACA_site1138]	9.79
TATTATAATATGCCTTGTACATATAACAAATTTATT [XGTACX_site108]	9.41
ATGTTATAAGATTTATGTACACACATATACACACCT [XGTACX_site1316]	10.5
GTTTCCTTAATATTCACACACATATATATAATATAT [CACACA_site1856]	10.2
TATATATAATATATATGTACGTATATATATAATATA [XGTACX_site8383]	9.57
TTAACATAAATATATACACACCAATGATGGCATTTA [CACACA_site4952]	9.62
TTTATTTTCCAAAGGGTGCACATAGTTGAAACGATA	9.56

Sequence	gcPBM binding intensity (ln)
AATAAAGCAATAAATACACACATATTTATATTTATA [CACACA_site7390]	9.84
TTTTGGATTGAGGACCTTTTTATAGAATTATGTTTT [TGCATGCA_negctrl_site544]	9.62
ATATATAATTTTTACACACGCAATAAATATATATAT [CACACA_site4283]	9.73
TTTATTATATTTTTTTGTACATATTGATGTATATAA [XGTACX_site6527]	9.6
GCAAATCTTATATGAAGTACATATCTTATAAATAAA [XGTACX_site6903]	9.43
AGCAAAATGAAATAAATTGGAAAATATTACTGAACG [CACACA_negctrl_site1433]	9.59
AACAAAGGATTTATATATACATACATACATACATAA [GTGCAC_negctrl_site469]	9.73
ATAAAAAAAAAAAGAAGTACATGTATTAAAATTTAT [XGTACX_site3927]	9.88
TGAATTTACAAAATCATGCACTTAATTACAGAATAA	9.45
CGAACACAAACACAAACACACATCATATATATATAT [CACACA_site4857]	9.96
ATTTTGGAAATAATATGTACATATACATAATATATA [XGTACX_site4177]	9.59
AATATACAAAAAAAAAAAAAAAAAAAAAAGATGGAA [TGCATGCA_negctrl_site550]	9.56
TTAATATTAATTATATGTACATATAATATATATATA [XGTACX_site1757]	9.53
ATCTTTTCATATTGCTGTACAAATTATTTTCATTCG [XGTACX_site492]	9.81
GAGAAATGGAGACACACACACATATTATATATATAT [CACACA_site1532]	10.3
TGTATAAAATTCCATTGTACATATTATTTTACGACA [XGTACX_site7764]	9.6
ATGTTAAACAAATCTATACACACGTATATGACAAAA [CACACA_site1783]	9.71
GGTACATACAGACACACACACAAAAAAAAAAAAATA [CACACA_site6844]	11.2
AAAAGTCTTCAAATTTGTACATATATATATATATAT [XGTACX_site3404]	10.1
TATTTAAAAAATAATACACACATAATATAACAAAAT [CACACA_site3174]	10.2
TGTGTATAAATATACACACACATATAAATATTTTAA [CACACA_site7005]	9.93
ACATATAATATAAATTGTACATATAAATATATTATT [XGTACX_site4268]	9.61

Sequence	gcPBM binding intensity (ln)
TTTACAACATCAAAATGTACGCATTATTATTATTAA [XGTACX_site3017]	9.44
TGGAGGTCAGTTCACAGTACCCAGGAAATCTGCGGA [XGTACX_site2556]	9.25
TTCACTTTTTTTTTTTTTTTTTTTTTTTTTTTTATT [GTGCAC_negctrl_site350]	9.36
ATGCATAATATACTCTTACACACCATTTCTATATAC [CACACA_site1461]	10
TATAACATAGGACACACACACATACATACACAAAAA [CACACA_site5062]	10.7
TCATATATTTTATACATACACACATATATATATTTT [CACACA_site3941]	10
ACGTTATACACAGTACGTACATAACTATCTAAATGT [XGTACX_site5068]	9.88
TTTTTTTTTTTTTTTTTTTTTTTTTTGTTCAGGCCT [GTGCAC_negctrl_site143]	8.84
ACGTAATAAAATAGTTGTACAACTTTTTATAATATA [XGTACX_site4393]	9.63
TCATAAATATGAAAAAGTACAAAGGTAGATTTTGAA [XGTACX_site4535]	9.71
TATATATATATTATATGTACGTATGTATGTATATAT [XGTACX_site6451]	9.69
AAACGATTAATGTGTACACACATAGTTATAAACCTA [CACACA_site2110]	10
ACAAAGTTATAATTCTTGCACTTTAAGGTTCATTTA	9.61
CGTGAATATATGATATGTACTTATAAAAATTTGTGC [XGTACX_site5480]	9.55
ATAAATATCTAGGGTTCACACATTATATATCTGTAT [CACACA_site5702]	9.75
GGTATACACAAGTATACACACATATATATATATATA [CACACA_site9063]	9.84
TTTTCCTCTTAAAATATACACACTGATTTAAGAAAA [CACACA_site3301]	9.29
TTCATTTTTTGCTTTCAACACACATACAATATATAT [CACACA_site9369]	10
AGTAACAAAAGAAAAAAATATGCAAACATATATATA [XGTACX_negctrl_site468]	9.65
AGAAATATATATATATATATATATATATATATATAT [TGCATGCA_negctrl_site375]	10.2
TTTTTCTTTTTTTCTTTTTTTATAAAACTTAATTGT [CACACA_negctrl_site384]	9.55
AAAAAAAAAAAAAAATATATATATATATACATACAT [CACACA_negctrl_site317]	9.67
